# From PubChem BioAssay AID1347428 (National Center for Advancing Translational Sciences (NCATS), 2020)
# The whole screen tested about 91,000 compounds, of which about 290 (0.32%) were called active. Inconclusive means that the source gave no clear call. Such entries were picked first, then a sample of the others. The call rests on the fitted dose curve; in most records, active means well fitted inhibition curve with a large enough effect; inconclusive means small, poorly fitted or top-dose-only effect; inactive means no such curve, though single readings can be large or run the other way. A potency beside an inconclusive call is a rough fit, not a confirmed value.
# Target: Single-stranded DNA cytosine deaminase (Homo sapiens) (UniProt Q9GZX7)
# Sequence of UniProt Q9GZX7 (Q9GZX7 whole entry, looked up): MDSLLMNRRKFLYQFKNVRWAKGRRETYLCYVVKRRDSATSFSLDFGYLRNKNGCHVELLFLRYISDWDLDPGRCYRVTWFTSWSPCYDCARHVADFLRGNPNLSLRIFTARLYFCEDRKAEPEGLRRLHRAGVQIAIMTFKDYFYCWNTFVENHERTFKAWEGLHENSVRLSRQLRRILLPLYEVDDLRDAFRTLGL
# Experiment: Primary qHTS assay for inhibitors of Activation Induced Cytidine Deaminase (AID): AID signal; further: nearly all actives have a fitted effect of over 25% in size
# Details: AID deamination FRET fluorescence, UDG-coupled, 4 h; activity change, negative = inhibition: at 115 µM (top of the series)
# On the % scale 0 is the no-effect control and ±100 the full control effect; potency means the concentration at half of the fitted maximal effect; tags describe the fitted curve by direction and shape.
Structure (SMILES),Potency,"activity change, negative = inhibition"
CCCCOc1ccc(C2=NC(c3ccncc3)=Nc3ccc(OCC)cc3N2)cc1,"inconclusive: 89.1 µM [inhibitor, partial curve, poor fit]",
CCc1ccc(NC(=O)CN2C(=O)C(c3ccc(C)cc3)=NC23CCCCC3)cc1,"inconclusive: 89.1 µM [inhibitor, partial curve, poor fit]",
Cc1cccc(NS(=O)(=O)c2ccc3[nH]c4c(c3c2)CCCCCC4)c1,,inactive: 0.907%
Cc1ccc(-n2nc(C)c3c(C)c(CCC(=O)NCc4ccccc4Cl)c(C)nc32)cc1C,"inconclusive: 100 µM [inhibitor, single point]",
CCOc1c(Br)cc(/C=C/C(=O)c2ccc(OC)c(OC)c2)cc1OC,"inconclusive: 31.6 µM [inhibitor, partial curve, poor fit]",
Cc1ccc2c(c1)N(C(=O)N1CCC(C(=O)NCCc3ccc(Cl)cc3)CC1)CC(C)O2 (stereo not drawn),"inconclusive: 50.1 µM [inhibitor, partial curve, poor fit]",
Cc1ccc(C)c(N2CCN(C(=O)c3cc4c(=O)n(Cc5ccccc5)ccc4nc3C)CC2)c1,"inconclusive: 50.1 µM [inhibitor, partial curve, poor fit]",
Cc1ccc(CN(Cc2ccco2)C(=O)c2ccc(OCC(C)C)cc2)cc1,"inconclusive: 50.1 µM [inhibitor, partial curve, poor fit]",
COc1ccc2[nH]c3c(c2c1)CCN(C(=O)c1cccc(Cl)c1)C3c1ccc(F)cc1 (stereo not drawn),"inconclusive: 25.1 µM [inhibitor, partial curve, poor fit]",
CC(C)c1nn2c(=O)cc(COC(=O)c3ccc(NC(=O)C4CCCCC4)cc3)nc2s1,"inconclusive: 100 µM [inhibitor, single point]",
CCOc1ccc(NC(=O)c2ccc3c(c2)CCN3S(=O)(=O)CC)cc1,,inactive: 11.9%
COc1ccc(Nc2nc3ccccc3nc2NS(=O)(=O)c2ccc(NC(C)=O)cc2)cc1OC,,inactive: 53.5%
CC1CCN(S(=O)(=O)c2ccc3c(ccn3CCC(=O)NCc3ccccc3F)c2)CC1,"inconclusive: 39.8 µM [inhibitor, partial curve, poor fit]",
O=C(Nc1ccc(Cl)cc1F)c1ccc(-c2ccccc2)cc1,,inactive: 0.947%
c1ccc(-n2nnnc2CNc2cccc3c2CCCC3)cc1,,inactive: -6.42%
Cc1ccc(C)c(S(=O)(=O)c2nnn3c2nc(NC2CCCCC2)c2sccc23)c1,"inconclusive: 35.5 µM [inhibitor, full curve]",
Cc1cc(-c2nnc(CSc3nc4ccc(Cl)cc4[nH]3)o2)c(C)o1,,inactive: 20.6%
Cc1ccc(S(=O)(=O)Cc2ccc(C(=O)N3CCN(c4cccc(Cl)c4)CC3)o2)cc1,"inconclusive: 56.2 µM [inhibitor, partial curve, poor fit]",
Cc1ccccc1OCC(=O)Nc1cccc(C(=O)OCc2cc(=O)n3c(C)csc3n2)c1,"inconclusive: 50.1 µM [inhibitor, partial curve, poor fit]",

Structure (SMILES),Potency,"activity change, negative = inhibition"
COC(=O)c1ccccc1NC(=O)C1CCN(C(=O)N2CC(C)Oc3ccccc32)CC1 (stereo not drawn),"inconclusive: 70.8 µM [inhibitor, partial curve, poor fit]",
COc1ccc(C(=O)NCC(c2ccc(N(C)C)cc2)N2CCc3ccccc32)cc1OC (stereo not drawn),"inconclusive: 50.1 µM [inhibitor, partial curve, poor fit]",
O=C(Nc1cccc(F)c1)c1ccc2c(c1)N(Cc1ccccc1)C(=O)c1ccccc1S2(=O)=O,"inconclusive: 35.5 µM [inhibitor, full curve, poor fit]",
Cc1ccc(-c2nnc(Nc3ccc(C(=O)N(C)C)cc3)c3ccccc23)cc1S(=O)(=O)N(C)C,"inconclusive: 79.4 µM [inhibitor, partial curve]",
Cc1ccc(NC(=O)c2ccc3c(O)c(S(=O)(=O)c4ccccc4)c(=O)[nH]c3c2)cc1Cl,"inconclusive: 50.1 µM [inhibitor, partial curve, poor fit]",
COc1ccc(C2c3cc(OC)c(OC)cc3CC(=O)N2c2ccc(C)c(F)c2)cc1 (stereo not drawn),"inconclusive: 100 µM [inhibitor, single point]",
CN(C)S(=O)(=O)c1cccc(NC(=O)c2ccccc2Oc2ccccc2)c1,,inactive: -11.1%
CCc1ccc(NC(=O)CN(c2cc(C)cc(C)c2)S(=O)(=O)c2c(C)[nH]c(=O)[nH]c2=O)cc1,,inactive: 13.7% [at 57.5 µM]
CCN(CC)C(=O)CSc1nc(-c2ccc(C)cc2)nc2c1Cc1c(CO)cnc(C)c1O2,active: 44.7 µM,
O=C1C(=C(c2ccccc2)c2ccccc2)C(Cl)C(Cl)(Cl)c2ccccc21 (stereo not drawn),"inconclusive: 39.8 µM [inhibitor, partial curve, poor fit]",
COc1ccc(/C=C/C(=O)Nc2nc(-c3cccs3)ns2)cc1OC,,inactive: 3.63%
Cc1ccc(CN(Cc2ccco2)C(=O)COc2ccc(C)c(C)c2)cc1,"inconclusive: 17.8 µM [inhibitor, full curve, poor fit]",
CC(C)(C)c1ccc(C(=O)NCC(c2ccc(Cl)cc2)N2CCOCC2)cc1 (stereo not drawn),"inconclusive: 44.7 µM [inhibitor, partial curve, poor fit]",
Cc1ccc(C)c(N2CCN(C(=O)CSCc3ccccc3Cl)CC2)c1,"inconclusive: 28.2 µM [inhibitor, partial curve, poor fit]",
CC(C)(C)c1ccc(C(=O)Nc2onc3c2CCCC3)cc1,,inactive: 1.59%
CC(C)(C)OC(=O)N1CCC(c2c(C(=O)NCCc3ccccc3)cnn2-c2ccc(F)cc2F)CC1,"inconclusive: 50.1 µM [inhibitor, partial curve, poor fit]",
Cc1c(C(=O)N2CCOCC2)oc2c1-c1nn(CC(=O)NCc3cccc(Cl)c3)cc1CC2,"inconclusive: 100 µM [inhibitor, single point]",
CC(=O)N1c2ccc(S(=O)(=O)Nc3ccc(Cl)cc3C)cc2CC1C (stereo not drawn),"inconclusive: 89.1 µM [inhibitor, partial curve, poor fit]",
O=C(NCc1ccco1)c1ccc2c(c1)N(Cc1ccc(F)cc1)C(=O)c1ccccc1S2(=O)=O,"inconclusive: 50.1 µM [inhibitor, partial curve, poor fit]",
